The text below walks through data of paper PMC4336329 (PLoS ONE, 2015).

Out of some 310,000 compounds screened, about 2,200 (0.71%) showed an effect of 50% or more. Effects have a minus sign here. The list shows a part of the results.

The target in this assay is human ether-à-go-go-related gene (hERG) potassium channel (human, UniProt Q12809). Briefly: primary screen, population patch clamp on CHO cells stably expressing hERG.
Chain of human ether-à-go-go-related gene (hERG) potassium channel (Q12809 whole entry, looked up): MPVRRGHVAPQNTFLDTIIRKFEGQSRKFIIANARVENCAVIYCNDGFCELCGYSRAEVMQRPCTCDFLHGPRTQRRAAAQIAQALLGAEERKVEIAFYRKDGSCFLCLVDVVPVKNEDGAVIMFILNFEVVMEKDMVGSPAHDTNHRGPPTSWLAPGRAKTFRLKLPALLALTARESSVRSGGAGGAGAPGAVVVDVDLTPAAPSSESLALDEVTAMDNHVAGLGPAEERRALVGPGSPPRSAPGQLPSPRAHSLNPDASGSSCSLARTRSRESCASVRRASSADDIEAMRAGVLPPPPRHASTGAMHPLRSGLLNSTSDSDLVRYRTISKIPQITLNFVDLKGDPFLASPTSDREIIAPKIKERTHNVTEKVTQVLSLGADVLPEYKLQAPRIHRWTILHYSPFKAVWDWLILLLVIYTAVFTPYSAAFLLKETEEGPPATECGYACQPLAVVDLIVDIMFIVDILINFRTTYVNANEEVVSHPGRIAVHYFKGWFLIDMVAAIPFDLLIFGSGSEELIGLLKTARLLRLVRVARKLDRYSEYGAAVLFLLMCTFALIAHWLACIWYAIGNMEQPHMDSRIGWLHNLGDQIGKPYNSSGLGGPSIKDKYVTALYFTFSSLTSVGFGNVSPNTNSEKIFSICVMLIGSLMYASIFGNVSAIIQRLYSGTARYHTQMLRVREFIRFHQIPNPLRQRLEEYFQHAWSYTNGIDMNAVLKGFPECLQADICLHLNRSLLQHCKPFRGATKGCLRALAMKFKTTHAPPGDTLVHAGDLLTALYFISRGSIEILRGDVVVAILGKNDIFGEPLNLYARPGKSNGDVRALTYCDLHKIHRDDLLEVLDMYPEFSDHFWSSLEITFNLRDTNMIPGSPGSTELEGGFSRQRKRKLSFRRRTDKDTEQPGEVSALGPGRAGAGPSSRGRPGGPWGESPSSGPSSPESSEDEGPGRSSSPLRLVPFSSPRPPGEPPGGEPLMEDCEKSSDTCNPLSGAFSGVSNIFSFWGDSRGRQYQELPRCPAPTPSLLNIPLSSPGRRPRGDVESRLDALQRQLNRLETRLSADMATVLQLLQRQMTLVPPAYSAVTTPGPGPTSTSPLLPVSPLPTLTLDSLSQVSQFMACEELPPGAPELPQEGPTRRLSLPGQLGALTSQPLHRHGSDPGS
As for `Cc1cc(/C=N/n2cnnc2)c(C)n1-c1ccc(OCc2ccccc2F)cc1`, the “hERG current change (%, negative = inhibition) at 1uM” value is on record as 14.1%.
On to `COCCn1c(C)cc(C(=O)CSc2nncn2-c2ccccc2)c1C`, for which the “hERG current change (%, negative = inhibition) at 1uM” value turned out to be 8.85%.
To `CSCCC(NS(=O)(=O)c1ccc2c(c1)oc(=O)n2C)C(=O)NC1CCN(Cc2ccccc2)CC1` (stereo not shown) belongs 12.3%; to `CC(=O)c1ccc(N2CCN(c3ccc4cc(S(=O)(=O)N5CCC(C)CC5)ccc4n3)CC2)cc1`, 7.63%.
To `Cc1csc(NC(=O)c2ccc(OCC3CCCO3)cc2)n1` (stereo not shown) belongs 7.76%.
Take `CCOC(=O)C(C(=O)OCC)C(=O)c1cc(OC)c(OC)c(OC)c1`: the “hERG current change (%, negative = inhibition) at 1uM” value came out at 12.6%.
To `Cc1cccc(OCc2nnc(SCC(=O)Nc3sc(C)c(C)c3C#N)n2C)c1` belongs 14%.
Then `O=C(Nc1ccc2c(c1)oc1ccccc12)c1ccncc1`, with 5.44%; and `O=C(c1ccccn1)N(Cc1cc2ccccc2[nH]c1=O)C1CCCCC1`, with 5.11%.
To `Cc1cc(C)cc(NC(=O)C2CCCN2C(=O)Oc2ccccc2)c1` (stereo not shown) belongs -0.455%; to `O=C(CCC1CCCN(C(=O)CCCc2ccccc2)C1)N1CCN(c2ccccn2)CC1` (stereo not shown), -6.61%; to `COc1ccccc1N1CCN(CCC(=O)Nc2cccc(Cl)c2)CC1.Cl`, -20.9%.
In the case of `Cc1ccc(N2C(=O)[C@@H]3[C@H](C2=O)C2c4ccccc4C=NN2[C@@H]3C(=O)c2ccc(Cl)cc2)cc1` (stereo partly shown), the “hERG current change (%, negative = inhibition) at 1uM” value is 8.4%.
Then `O=S(=O)(Nc1ccc(N2CCCCC2)cc1)c1cccs1`, with 9.38%; and `Cc1ccc(NC(=O)CSc2nnc(-c3n[nH]c4ccccc34)n2-c2ccccc2)c(C)c1`, with 15.3%.
To `C=CCN(c1ccc(C(=O)Nc2ccc(C)c(C)c2)cc1)S(C)(=O)=O` belongs 5.22%.
To `COc1ccccc1N1C[C@@H]2C[C@@H](c3ccco3)N3CCC[C@@]23C1=O` belongs 14.7%; to `Cc1ccc2nc(SCC(=O)Nc3cc(C(C)(C)C)nn3-c3ccccc3)[nH]c2c1`, -0.742%.
In the case of `CCc1ccccc1NC(=O)C(Cc1ccccc1)c1nn[nH]n1` (stereo not shown), the “hERG current change (%, negative = inhibition) at 1uM” value was found to be 10.2%.
Then `Cc1ccc(Sc2sc(=O)n(C)c2S(=O)(=O)c2ccc(C)cc2)cc1`, with 5.93%; and `CC1CCN(CCCCOc2ccc(C(=O)c3ccccc3)cc2)CC1.O=C(O)C(=O)O`, with -72.4%; and `Cc1oc(-c2cccc(Cl)c2)nc1CN1CCC(C(=O)N2CCN(c3ccccc3F)CC2)CC1`, with 1.87%.
To `COC(=O)c1cnc(Nc2ccc(Cl)cc2)c([N+](=O)[O-])c1` belongs 9.69%; to `C=CCn1c(C(C)NC(=O)c2cccc(C)c2)n[nH]c1=S` (stereo not shown), 16.5%.
Consider `O=C(CCCOc1ccccc1)Nc1ccc2c(c1)OCCO2`, for which the “hERG current change (%, negative = inhibition) at 1uM” value came to 16.3%.
To `Cc1cc(=O)[nH]c(-c2ccccc2)n1` belongs 15.1%; to `Cc1ccc(CN(Cc2ccco2)S(=O)(=O)c2ccc(S(=O)(=O)NCC3CCCO3)cc2)cc1` (stereo not shown), 11.1%.
To `CCCn1c(SCC(=O)c2cc(C)c(C)cc2C)n[nH]c1=O` belongs 18.2%; to `Cc1nn(-c2ccccc2)c(Cl)c1/C=C/C(=O)c1ccccc1`, 0.915%.
For `C=CCn1c(O)c(C=Nc2ccc(N(CC)CC)cc2)c(=O)[nH]c1=O`, the “hERG current change (%, negative = inhibition) at 1uM” value is -1.24%.
To `Cc1ccc(NC(=O)COC(=O)c2ccc(S(=O)(=O)N3CCCCC3)cc2)cc1` belongs 19.4%; to `CCOC(=O)c1cc(-c2ccc(Cl)cc2)nc2c1c(C)nn2CCC#N`, 10.9%; to `Cc1onc(-c2ccccc2Cl)c1C(=O)N1CCN(C)CC1`, 16.9%.
Then `O=C(COc1cccc2ccccc12)N/N=C/c1ccco1`, with 12.8%; and `COc1ccc(N2CC(C(=O)NCCCN3CCOCC3)CC2=O)cc1` (stereo not shown), with -3.65%.
To `Cc1cc(NS(=O)(=O)c2ccc(NC(=O)COc3ccccc3C(C)C)cc2)no1` belongs 18%.
Consider `Cc1csc(SCC(=O)NC(=O)c2ccccc2)n1`, for which the “hERG current change (%, negative = inhibition) at 1uM” value was 8.15%.
Then `CCC1(C)OC(=O)NN(c2ccc(C)cc2)C1(C)O` (stereo not shown), with 13.6%; and `C=CCC12C=C(OC)C(=O)OC(OC)(C1O)[C@H](c1ccc3c(c1)OCO3)[C@H]2C` (stereo partly shown), with 12.8%; and `Cc1ccc2[nH]c(=O)c(CN(CCc3ccccc3)C(=O)N3CCOCC3)cc2c1`, with 2.19%.
Turning to `CC(C)CCNC(=O)C1CCC(CNc2c(N3CCCC3)c(=O)c2=O)CC1` (stereo not shown), the “hERG current change (%, negative = inhibition) at 1uM” value is 11.3%.
For the compound `O=C(COC(=O)/C=C/c1ccccc1[N+](=O)[O-])Nc1ccc(OC(F)F)cc1`, the “hERG current change (%, negative = inhibition) at 1uM” value is reported as 9.59%.
On to `CC(C)(C)C(=O)NNC(=O)c1cnccn1`, for which the “hERG current change (%, negative = inhibition) at 1uM” value was 6.94%.
For `Cc1ccc(-c2cccc(OC(=O)c3ccccc3F)c2)cc1`, the “hERG current change (%, negative = inhibition) at 1uM” value was 4.52%.
To `Cc1ccc(C)c(NS(=O)(=O)c2cc(Br)cnc2N)c1` belongs 11.4%; to `Cc1ccc(S(=O)(=O)Nc2ccc(S(=O)(=O)N3CCOCC3)cc2)cc1`, 11.1%; to `Cc1ccc(C)c(S(=O)(=O)N2CCN(CC(=O)Nc3cc(C)on3)CC2)c1`, 0.567%.
To `CCCCNC(=S)Nc1ccc(Oc2ccccc2)cc1` belongs 5.29%.
To `CC(NS(=O)(=O)c1ccccc1)C(c1cccs1)N1CCN(C)CC1` (stereo not shown) belongs 14.3%.
For `c1ccc(-c2nn3c(Cn4cnc5ccccc54)nnc3s2)cc1`, the “hERG current change (%, negative = inhibition) at 1uM” value was -0.727%.
Turning to `Cc1cc(-c2ccc(Cl)cc2Cl)c(C#N)c(=O)[nH]1`, the “hERG current change (%, negative = inhibition) at 1uM” value was found to be 9.39%.
For `CN(C)S(=O)(=O)c1cccn1-c1ncc(C(F)(F)F)cc1Cl`, the “hERG current change (%, negative = inhibition) at 1uM” value is listed as 2.65%.
Then `Cc1ccc(-n2c(SCc3ccc(C#N)cc3)nnc2-c2ccccn2)cc1`, with -6.99%; and `COCCn1c(SCC(=O)N2CCCCCC2)nnc1-c1ccco1`, with 18.6%; and `Cc1nc(SCC(=O)O)c(C#N)c(C)c1CC(=O)c1ccccc1`, with 14.7%.
Then `NC(=S)N/N=C/c1ccccc1O`, with 13%.
On to `CCOC(=O)N1C2=NC(C(=O)OC)=C(C(=O)OC)[C@@H]3N(C)c4ccc(OC)cc4[C@]23C[C@H]1C(=O)OC`, for which the “hERG current change (%, negative = inhibition) at 1uM” value is 12.8%.
Then `COC(=O)Nc1c(-c2ccccc2)nc2ccccn12`, with 9.79%; and `CCCCN(Cc1cc2cc(OC)ccc2[nH]c1=O)C(=O)c1ccco1`, with 9.48%; and `CC(C)C(NS(=O)(=O)c1ccc2c(c1)Cc1cc(S(=O)(=O)NC(C(=O)O)C(C)C)ccc1-2)C(=O)O` (stereo not shown), with 15.7%.
With `O=C(O)C1CCCN1c1ncnc2ccccc12` (stereo not shown), the “hERG current change (%, negative = inhibition) at 1uM” value is 18.7%.
Then `Cc1ccc(N/C(N)=N/c2nc(CSc3nnc(N)s3)cc(=O)[nH]2)cc1`, with 14.5%; and `CCN(CC)S(=O)(=O)c1ccc2oc(C(=O)N3CCc4ccccc4C3)c(C)c2c1`, with -5.15%.
Then `CC(C)N1CCc2c(sc(NC(=O)c3ccc(S(=O)(=O)N4CCc5ccccc54)cc3)c2C(N)=O)C1.Cl`, with 0.65%; and `COc1ccc(CCNC(N)=S)cc1OC`, with 14.7%.
To `C/C(=N\N1CCN(C2c3ccccc3-c3ccccc32)CC1)c1cccnc1` belongs 5.87%; to `Cc1ccc(C(=O)COC(=O)c2ccc(-c3cnc4ccccc4n3)cc2)cc1C`, -2.25%; to `COc1cc(C(=O)OC(C)CN2CCOCC2)cc(OC)c1OC` (stereo not shown), 7.53%.
For `COCCn1nnnc1C(C(C)C)N1CCN(C(=O)c2ccco2)CC1.Cl` (stereo not shown), the “hERG current change (%, negative = inhibition) at 1uM” value was 2.85%.
Take `O=c1c(-c2ccc(O)cc2)coc2cc(O)cc(O)c12`: the “hERG current change (%, negative = inhibition) at 1uM” value is reported as 13.4%.
As to `NC(=O)c1ccccc1N=Cc1ccccn1`, the “hERG current change (%, negative = inhibition) at 1uM” value was 5.54%.
With `CCC(/C=N/NC(=O)CCCCC(=O)N/N=C/C(CC)CC)CC`, the “hERG current change (%, negative = inhibition) at 1uM” value worked out at 1.99%.
For `COc1ccc(NS(=O)(=O)c2ccc(N)c(C(=O)O)c2)cc1`, the “hERG current change (%, negative = inhibition) at 1uM” value is reported as 8.84%.
Turning to `COC(=O)c1scc(C)c1NC(=O)c1cccc(C#N)c1`, the “hERG current change (%, negative = inhibition) at 1uM” value is 9.03%.
Regarding `CCOC(=O)c1oc2cccc(O)c2c1C`, the “hERG current change (%, negative = inhibition) at 1uM” value turned out to be 5.17%.
To `COC(=O)c1scc(C)c1NC(=O)C(Cl)c1ccccc1` (stereo not shown) belongs 11.2%; to `C=CCc1ccccc1OCC(=O)NNC(=S)NCc1ccccc1`, 4.14%; to `Cc1cc(C)c2nc(SCC(=O)NCC3CCCO3)c(C#N)cc2c1` (stereo not shown), 11.5%.
Then `O=C1NS(=O)c2cc([N+](=O)[O-])cc([N+](=O)[O-])c21` (stereo not shown), with 15.3%; and `O=C(CCNc1cccc(C(F)(F)F)c1)c1ccco1`, with 11.1%; and `Cc1ccc(-n2cc(CNCCn3nc(C)cc3C)c(-c3ccc(F)cc3)n2)cc1`, with 3.16%.
Then `Cc1occc1C(=O)Nc1ccc2c(c1)OCO2`, with -6.03%; and `COc1cc(OC)c(C(=O)OC(C)C(=O)Nc2cc(C(F)(F)F)ccc2Cl)cc1OC` (stereo not shown), with 9.7%; and `Cc1cc2occ(CC(=O)N(C)CC(=O)Nc3c(C)cccc3C)c2cc1C`, with 16.8%.
With `Cc1ccc(OCCOc2cccc(C=C3C(=O)NC(=O)NC3=O)c2)c(C)c1`, the “hERG current change (%, negative = inhibition) at 1uM” value is reported as 11.9%.
Then `COC(=O)c1c(C)n(Cc2ccco2)c2ccc(O)cc12`, with -0.551%; and `COC(=O)CSC1=NS(=O)(=O)c2ccccc21`, with 7.75%; and `Cn1c(=O)c2c(nc(NCc3cccnc3)n2Cc2ccccc2Cl)n(C)c1=O`, with 4.67%.
